Results are given in words; binding and its absence hold for the method and conditions named. For some of these results: Binding seen in cells or lysates may run through a third protein. Some results given as binding are weak or reduced against the parent protein; the word gives no strength. For some of these results: Tags and fused reporters may be left off the sequences shown.
T1: GST-tagged POLE4 F74A (human) (UniProt Q9NR33)
T1 sequence: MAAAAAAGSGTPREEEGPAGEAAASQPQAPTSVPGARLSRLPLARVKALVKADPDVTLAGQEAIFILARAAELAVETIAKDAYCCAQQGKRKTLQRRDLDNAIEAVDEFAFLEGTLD

Chains of the proteins cited; added tags and fusions are not shown. Lines headed by an entry give the natural chain unless they say otherwise; changes in a name come on top.
UniProt Q9NRF9: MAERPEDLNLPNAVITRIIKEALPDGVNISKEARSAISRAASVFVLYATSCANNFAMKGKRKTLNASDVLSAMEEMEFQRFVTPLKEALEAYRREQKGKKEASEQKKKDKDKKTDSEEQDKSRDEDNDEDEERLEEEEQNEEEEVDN
UniProt Q07864: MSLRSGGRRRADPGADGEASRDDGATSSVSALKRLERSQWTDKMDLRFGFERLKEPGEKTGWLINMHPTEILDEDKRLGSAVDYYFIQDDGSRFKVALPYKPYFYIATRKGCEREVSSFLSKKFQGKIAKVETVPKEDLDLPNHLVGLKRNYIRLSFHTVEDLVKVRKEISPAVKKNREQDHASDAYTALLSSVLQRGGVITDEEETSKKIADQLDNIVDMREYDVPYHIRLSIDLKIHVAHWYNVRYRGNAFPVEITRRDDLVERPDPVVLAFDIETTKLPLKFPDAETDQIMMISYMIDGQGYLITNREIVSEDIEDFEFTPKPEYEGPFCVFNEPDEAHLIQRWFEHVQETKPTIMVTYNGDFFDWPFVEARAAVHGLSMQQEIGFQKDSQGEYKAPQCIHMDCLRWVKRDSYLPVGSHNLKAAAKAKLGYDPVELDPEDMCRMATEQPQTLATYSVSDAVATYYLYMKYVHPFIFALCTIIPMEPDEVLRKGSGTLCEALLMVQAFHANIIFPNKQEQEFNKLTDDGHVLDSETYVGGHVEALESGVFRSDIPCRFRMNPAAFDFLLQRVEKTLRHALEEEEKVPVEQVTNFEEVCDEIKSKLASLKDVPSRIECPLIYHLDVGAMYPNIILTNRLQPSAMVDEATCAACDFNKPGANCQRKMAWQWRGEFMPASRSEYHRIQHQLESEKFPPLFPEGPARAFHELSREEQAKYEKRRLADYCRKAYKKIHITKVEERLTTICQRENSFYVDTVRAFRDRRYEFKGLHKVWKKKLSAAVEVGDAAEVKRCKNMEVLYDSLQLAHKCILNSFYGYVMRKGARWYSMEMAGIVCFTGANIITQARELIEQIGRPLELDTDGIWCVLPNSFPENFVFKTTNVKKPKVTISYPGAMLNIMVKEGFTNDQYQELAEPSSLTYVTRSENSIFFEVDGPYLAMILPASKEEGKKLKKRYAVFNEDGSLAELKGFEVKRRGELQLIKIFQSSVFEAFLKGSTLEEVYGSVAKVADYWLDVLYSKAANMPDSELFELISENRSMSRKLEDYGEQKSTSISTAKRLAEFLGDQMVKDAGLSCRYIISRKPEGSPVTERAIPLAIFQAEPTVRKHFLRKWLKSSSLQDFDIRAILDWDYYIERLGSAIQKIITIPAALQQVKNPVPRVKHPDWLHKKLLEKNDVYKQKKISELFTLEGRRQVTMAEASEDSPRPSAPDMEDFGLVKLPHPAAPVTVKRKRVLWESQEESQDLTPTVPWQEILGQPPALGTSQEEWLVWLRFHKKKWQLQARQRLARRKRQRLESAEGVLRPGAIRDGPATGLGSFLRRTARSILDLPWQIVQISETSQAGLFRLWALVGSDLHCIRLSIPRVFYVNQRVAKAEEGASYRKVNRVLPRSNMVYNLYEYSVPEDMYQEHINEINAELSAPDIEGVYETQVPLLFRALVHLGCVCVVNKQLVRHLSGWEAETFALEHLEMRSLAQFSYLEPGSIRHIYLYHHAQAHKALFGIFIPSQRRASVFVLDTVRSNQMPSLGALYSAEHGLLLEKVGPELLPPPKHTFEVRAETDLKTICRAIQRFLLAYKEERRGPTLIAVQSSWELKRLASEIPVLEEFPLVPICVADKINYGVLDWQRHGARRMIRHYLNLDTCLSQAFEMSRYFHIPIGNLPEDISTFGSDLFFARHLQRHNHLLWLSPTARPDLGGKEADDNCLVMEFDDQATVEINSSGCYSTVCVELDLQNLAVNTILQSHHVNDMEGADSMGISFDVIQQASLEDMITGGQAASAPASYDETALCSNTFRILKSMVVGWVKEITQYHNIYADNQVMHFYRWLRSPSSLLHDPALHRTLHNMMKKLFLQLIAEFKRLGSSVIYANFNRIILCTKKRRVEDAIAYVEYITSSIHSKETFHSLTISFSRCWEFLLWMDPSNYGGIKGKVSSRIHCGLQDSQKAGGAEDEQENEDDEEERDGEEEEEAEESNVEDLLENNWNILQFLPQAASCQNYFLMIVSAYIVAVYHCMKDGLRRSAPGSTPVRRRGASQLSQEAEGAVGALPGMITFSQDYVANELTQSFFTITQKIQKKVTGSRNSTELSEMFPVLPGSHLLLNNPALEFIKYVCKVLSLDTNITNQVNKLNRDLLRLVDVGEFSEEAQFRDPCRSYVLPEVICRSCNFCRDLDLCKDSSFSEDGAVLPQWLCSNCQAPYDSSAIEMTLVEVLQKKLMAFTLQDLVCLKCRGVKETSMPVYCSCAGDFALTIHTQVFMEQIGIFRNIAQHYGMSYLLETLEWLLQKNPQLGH

T2: GST-tagged POLE4 F74D (human) (UniProt Q9NR33)
T2 sequence: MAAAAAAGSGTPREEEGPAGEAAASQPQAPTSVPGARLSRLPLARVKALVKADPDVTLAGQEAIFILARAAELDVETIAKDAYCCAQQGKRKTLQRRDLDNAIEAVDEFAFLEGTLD

T3: FLAG-tagged POLE4 WT (human) (UniProt Q9NR33)
T3 sequence: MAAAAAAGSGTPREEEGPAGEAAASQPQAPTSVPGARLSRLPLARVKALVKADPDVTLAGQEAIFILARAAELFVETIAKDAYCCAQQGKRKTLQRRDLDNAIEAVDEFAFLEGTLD

T4: FLAG-tagged POLE4 F74D (human) (UniProt Q9NR33)
T4 sequence: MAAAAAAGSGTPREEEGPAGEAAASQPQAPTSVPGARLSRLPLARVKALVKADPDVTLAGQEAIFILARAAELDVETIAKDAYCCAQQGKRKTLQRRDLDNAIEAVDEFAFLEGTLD


Columns and labels:
[1] = molecular target: T1, GST-tagged POLE4 F74A (human); assay: pull-down; GST-tagged POLE3 or POLE4 (WT or mutant) on glutathione beads with His-tagged POLE4 or POLE3; 150 mM and 1 M NaCl (Figures S1A, S1B); salt of Figure 1C not told; both purified
[2] = molecular target: T2, GST-tagged POLE4 F74D (human); assay: as above
[3] = molecular target: T3, FLAG-tagged POLE4 WT (human); assay: co-IP; FLAG IP from whole-cell extracts of HeLa TRex cells; western blot
[4] = molecular target: FLAG-tagged POLE3 WT (human) (UniProt Q9NRF9); assay: as above
[5] = molecular target: FLAG-tagged POLE3 F44D (human) (UniProt Q9NRF9); assay: as above
[6] = molecular target: T4, FLAG-tagged POLE4 F74D (human); assay: as above
[7] = molecular target: T3, FLAG-tagged POLE4 WT (human); assay: co-IP; IP with anti-POLE3 or anti-FLAG, 2 hr at 4°C, in 0.1% Triton-CSK from DNaseI-digested chromatin of HeLa or HeLa TRex cells; also in cells expressing MCM2 WT or Y81A-Y90A with endogenous MCM2 knocked down
[8] = molecular target: T3, FLAG-tagged POLE4 WT (human); assay: co-IP; IP with anti-POLE3 or anti-FLAG, 2 hr at 4°C, from the soluble fraction (CSK, 0.5% Triton) of HeLa or HeLa TRex cells
[9] = molecular target: GST-tagged POLE3 F44D (human) (UniProt Q9NRF9); assay: pull-down; GST-tagged POLE3 or POLE4 (WT or mutant) on glutathione beads with His-tagged POLE4 or POLE3; 150 mM and 1 M NaCl (Figures S1A, S1B); salt of Figure 1C not told; both purified
[10] = molecular target: GST-tagged POLE3 F44A (human) (UniProt Q9NRF9); assay: as above
[11] = molecular target: endogenous POLE3 (human (endogenous in HeLa)) (UniProt Q9NRF9); assay: co-IP; IP with anti-POLE3 or anti-FLAG, 2 hr at 4°C, in 0.1% Triton-CSK from DNaseI-digested chromatin of HeLa or HeLa TRex cells; also in cells expressing MCM2 WT or Y81A-Y90A with endogenous MCM2 knocked down

Row | Molecule | binding [3] | binding [4] | binding [5] | binding [6] | further results
1 | His-tagged POLE3 (from UniProt Q9NRF9 1-147) |  |  |  |  | binding [1]: no binding; binding [2]: no binding
2 | POLE1, the catalytic subunit of Polε (from UniProt Q07864 1-2286) | binds | binds | no binding | no binding | 
3 | endogenous POLE4 (protein, UniProt Q9NR33 1-117) MAAAAAAGSGTPREEEGPAGEAAASQPQAPTSVPGARLSRLPLARVKALVKADPDVTLAGQEAIFILARAAELFVETIAKDAYCCAQQGKRKTLQRRDLDNAIEAVDEFAFLEGTLD |  | binds | no binding |  | 
4 | His-tagged POLE4 (natural protein, human, UniProt Q9NR33 1-117, looked up, DNA polymerase epsilon subunit POLE4, human; cloned via Gateway into pDEST17; also called His-POLE4; source: E. coli BL21(DE3) pLysS, purified (Ni-NTA)) MAAAAAAGSGTPREEEGPAGEAAASQPQAPTSVPGARLSRLPLARVKALVKADPDVTLAGQEAIFILARAAELFVETIAKDAYCCAQQGKRKTLQRRDLDNAIEAVDEFAFLEGTLD |  |  |  |  | binding [9]: no binding; binding [10]: no binding

Second part, led by results:

Row | binding [3] | binding [4] | binding [5] | binding [6] | Molecule | further results
5 | binds |  |  | no binding | endogenous POLE3 (from UniProt Q9NRF9 1-147) | binding [7]: binds; binding [8]: binds
6 | binds | binds | no binding | no binding | POLE2 (protein, UniProt P56282 1-527) MAPERLRSRALSAFKLRGLLLRGEAIKYLTEALQSISELELEDKLEKIINAVEKQPLSSNMIERSVVEAAVQECSQSVDETIEHVFNIIGAFDIPRFVYNSERKKFLPLLMTNHPAPNLFGTPRDKAEMFRERYTILHQRTHRHELFTPPVIGSHPDESGSKFQLKTIETLLGSTTKIGDAIVLGMITQLKEGKFFLEDPTGTVQLDLSKAQFHSGLYTEACFVLAEGWFEDQVFHVNAFGFPPTEPSSTTRAYYGNINFFGGPSNTSVKTSAKLKQLEEENKDAMFVFLSDVWLDQVEVLEKLRIMFAGYSPAPPTCFILCGNFSSAPYGKNQVQALKDSLKTLADIICEYPDIHQSSRFVFVPGPEDPGFGSILPRPPLAESITNEFRQRVPFSVFTTNPCRIQYCTQEITVFREDLVNKMCRNCVRFPSSNLAIPNHFVKTILSQGHLTPLPLYVCPVYWAYDYALRVYPVPDLLVIADKYDPFTTTNTECLCINPGSFPRSGFSFKVFYPSNKTVEDSKLQGF | binding [11]: binds
